Among all 310,000 compounds or so, about 14,000 (4.5%) showed an effect of 50% or more. The effect is printed as a negative number. This is one part of the list.
Target: human ether-à-go-go-related gene (hERG) potassium channel (human, UniProt Q12809)
Experiment: primary screen, population patch clamp on CHO cells stably expressing hERG
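Note: peak tail current of the secondary pulse compared with the same well before compound.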

Chain of human ether-à-go-go-related gene (hERG) potassium channel (Q12809 whole entry, looked up): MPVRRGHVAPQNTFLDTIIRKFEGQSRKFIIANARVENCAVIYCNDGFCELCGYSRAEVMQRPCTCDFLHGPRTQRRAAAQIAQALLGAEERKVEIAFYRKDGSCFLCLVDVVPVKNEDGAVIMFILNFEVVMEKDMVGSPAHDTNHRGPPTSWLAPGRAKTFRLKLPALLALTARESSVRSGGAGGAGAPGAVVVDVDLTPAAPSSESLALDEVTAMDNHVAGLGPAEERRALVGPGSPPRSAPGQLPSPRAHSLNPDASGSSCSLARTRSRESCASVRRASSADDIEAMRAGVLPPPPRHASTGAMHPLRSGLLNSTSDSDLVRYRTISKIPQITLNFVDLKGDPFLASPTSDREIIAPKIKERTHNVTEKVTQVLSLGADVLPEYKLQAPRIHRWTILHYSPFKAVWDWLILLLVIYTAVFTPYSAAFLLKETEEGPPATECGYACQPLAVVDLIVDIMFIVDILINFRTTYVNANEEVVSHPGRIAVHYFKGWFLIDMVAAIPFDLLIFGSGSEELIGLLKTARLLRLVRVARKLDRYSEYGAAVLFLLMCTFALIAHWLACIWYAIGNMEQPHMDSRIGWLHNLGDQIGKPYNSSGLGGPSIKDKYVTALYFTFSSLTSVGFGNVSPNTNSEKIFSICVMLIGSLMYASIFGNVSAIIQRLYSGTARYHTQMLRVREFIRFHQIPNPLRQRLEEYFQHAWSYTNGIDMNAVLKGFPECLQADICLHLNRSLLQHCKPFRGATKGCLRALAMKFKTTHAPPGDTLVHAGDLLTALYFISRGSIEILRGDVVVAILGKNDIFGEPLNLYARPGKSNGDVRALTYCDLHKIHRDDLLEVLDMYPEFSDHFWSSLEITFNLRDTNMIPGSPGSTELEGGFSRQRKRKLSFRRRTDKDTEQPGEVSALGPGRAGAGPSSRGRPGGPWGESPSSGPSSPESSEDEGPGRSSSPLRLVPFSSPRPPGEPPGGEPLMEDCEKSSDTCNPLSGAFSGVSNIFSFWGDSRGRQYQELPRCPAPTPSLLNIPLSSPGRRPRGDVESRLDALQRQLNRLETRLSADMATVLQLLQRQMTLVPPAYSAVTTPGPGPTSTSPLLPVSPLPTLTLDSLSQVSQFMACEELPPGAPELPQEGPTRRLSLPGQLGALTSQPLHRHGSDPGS

Compound | hERG current change (%, negative = inhibition) at 10uM
COc1ccccc1CNC(=O)Cn1cnc2ccccc2c1=O | 5.64%
O=C1c2ccccc2C(Nc2ccc3c(c2)OCCO3)N1c1ccc(Cl)cn1 (stereo not shown) | 3.88%
Cc1ccc(S(=O)(=O)N(C)C)cc1NC(=O)COC(=O)COc1ccc2c(c1)CCC2 | -17.2%
Cc1ccc(-c2cc(C(=O)Nc3ccc(S(=O)(=O)Nc4nccs4)cc3)c3ccccc3n2)c(C)c1 | 4.21%
O=C(NCCc1ccccc1)C1CCN(C2CCN(C(=O)CC3=CCCCC3)CC2)CC1 | -25%
CCc1cc(C(=O)N2CCN(c3ncccn3)CC2)sc1C | -27.5%
CCCCN(C)Cc1c(O)ccc2c(-c3ccccc3)cc(=O)oc12 | -33.9%
O=C(c1cc2cc(F)ccc2[nH]1)N1CCCC(Nc2ccc(F)cc2)C1 (stereo not shown) | -18.7%
O=C(c1cnc(Cl)c(Cl)c1)N1CCC(Cc2ccccc2)CC1 | -17.9%
COc1ccc(C2N(S(=O)(=O)c3ccccc3)CCN2S(=O)(=O)c2ccc(C)cc2)cc1 (stereo not shown) | -22.9%
Cc1c(C(=O)N(Cc2ccncc2)CC2CCCO2)oc2c(F)cccc12 (stereo not shown) | -27.1%
CN(CC(=O)Nc1ccc(F)c(F)c1F)C(=O)CCN1C(=O)C2CCCCC2C1=O (stereo not shown) | -8.97%
Cc1nc2cc(NC(=O)c3ccc(N4C(=O)CCC4=O)cc3)ccc2s1 | 9.81%
COC(=O)c1cc(C#N)c(Oc2ccccc2)nc1C | -22.2%
NC(=O)COc1c(-c2ccc(Br)o2)oc2ccccc2c1=O | -8.75%
C[C@H](NS(=O)(=O)c1ccc(Cl)c(Cl)c1)C(=O)OCc1cc(=O)n2cc(Br)ccc2n1 | -63.4%
Cn1c(=O)n(Cc2ccc(F)cc2)c(=O)c2c1nc1n2CCCN1Cc1ccccc1 | -16%
CN(C)/C=C1\N=C(c2ccc(Cl)cc2Cl)OC1=O | -6.88%
O=C1NC(=O)C(CCc2ccncc2)(CCc2ccccn2)C(=O)N1c1ccc(Br)cc1 (stereo not shown) | -75.6%
Cc1ccc(Nc2c([N+](=O)[O-])ccc3c2=NC2(CCCCC2)N=3)cc1 | -0.425%
Cc1ccc(C(=O)NCC(=O)OCC(=O)Nc2cc(S(=O)(=O)N3CCOCC3)ccc2C)cc1 | -6.54%
CCn1cc(C(=O)NCc2cccc(F)c2)c(=O)c2cc(F)c(N3CCN(C(=O)c4ccco4)CC3)cc21 | -21%
